# Among all 270,000 compounds or so, about 620 (0.23%) were called active. This list was built around the results that the source calls inconclusive (neither active nor inactive); the mix of calls is not that of the screen. The call rests on the fitted dose curve; in most records, active means well fitted inhibition curve with a large enough effect in the polarisation, with a control signal flat (not every such curve was filed as active); inconclusive means small, poorly fitted or top-dose-only effect, or effect the other way, or a change in a side signal; inactive means no such curve, though single readings can be large or run the other way; the % refers to the polarisation. Potencies beside an inconclusive call are fits to weak or partial responses and may not hold up. “Side channel” marks fits to a control or component signal instead of the main read-out.
# Target: Menin (Homo sapiens) (UniProt O00255)
# Chain of UniProt O00255 (O00255 whole entry, looked up): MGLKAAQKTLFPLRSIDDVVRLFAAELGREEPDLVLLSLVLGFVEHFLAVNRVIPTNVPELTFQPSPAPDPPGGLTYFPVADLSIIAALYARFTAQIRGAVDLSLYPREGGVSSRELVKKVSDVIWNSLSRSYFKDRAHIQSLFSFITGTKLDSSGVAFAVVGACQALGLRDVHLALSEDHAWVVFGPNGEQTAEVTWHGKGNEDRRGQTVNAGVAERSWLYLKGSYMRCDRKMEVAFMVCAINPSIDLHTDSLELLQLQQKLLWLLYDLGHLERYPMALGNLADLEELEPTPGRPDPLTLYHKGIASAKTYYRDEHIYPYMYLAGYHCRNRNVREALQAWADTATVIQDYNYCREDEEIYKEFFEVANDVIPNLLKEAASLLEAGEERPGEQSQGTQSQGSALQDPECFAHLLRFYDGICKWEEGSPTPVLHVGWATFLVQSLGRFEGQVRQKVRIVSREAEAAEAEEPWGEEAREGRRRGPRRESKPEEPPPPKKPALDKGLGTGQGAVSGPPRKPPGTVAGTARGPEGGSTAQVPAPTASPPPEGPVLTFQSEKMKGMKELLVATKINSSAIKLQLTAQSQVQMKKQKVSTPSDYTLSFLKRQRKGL
# Assay: qHTS Assay for Inhibitors Targeting the Menin-MLL Interaction in MLL Related Leukemias: Competition With Texas Red Labeled MLL-derived Mutant Peptide; on FP activity change, negative = inhibition: % of control where 0% means no effect
# Conditions: fluorescence polarization; FP activity change, negative = inhibition: at 61.6 µM (top of the series)
# Potency means the concentration at half of the fitted maximal effect; tags describe the fitted curve by direction and shape or compound fluorescence and quenching.
SMILES,Potency,"FP activity change, negative = inhibition"
S=C(NCCc1ccccc1)NC1CCC(NC(=S)NCCc2ccccc2)CC1 (stereo not drawn),"inconclusive: 39.8 µM [fluorescent, side channel, single point]",–
Cc1ccc(S(=O)(=O)Nc2ccc(C(OC(=O)c3ccccc3[N+](=O)[O-])(C(F)(F)F)C(F)(F)F)cc2)cc1,"inconclusive: 7.08 µM [quencher, side channel, partial curve]",–
COc1ccc(OCc2nc(N)nc(Nc3ccc(C)cc3)n2)cc1,"inconclusive: 39.8 µM [quencher, side channel, single point]",–
CC(=O)O[C@]1(C(C)=O)CC[C@H]2[C@@H]3C=CC4=CC(=O)C=C[C@]4(C)[C@H]3CC[C@@]21C,"inconclusive: 39.8 µM [inhibitor, single point]",–
CCOP(=O)(OCC)c1nc(/C=C/c2ccccc2)oc1NCc1ccc(OC)cc1,"inconclusive: 3.16 µM [fluorescent, side channel, full curve]",–
Cn1c(=NC(=O)c2ccc3c(c2)OCCO3)sc2cc(S(C)(=O)=O)ccc21,"inconclusive: 14.1 µM [inhibitor, partial curve, poor fit]",–
COc1ccc(C(=O)NCC(=O)OCCCOC(=O)CNC(=O)c2ccc(OC)c(OC)c2)cc1OC,"inconclusive: 3.98 µM [quencher, side channel, single point]",–
COc1ccc(-n2c(C)cc(-c3csc(NC(=O)c4ccc(S(=O)(=O)N(C)C)cc4)n3)c2C)cc1,"inconclusive: 17.8 µM [quencher, side channel, partial curve]",–
CCCOC(=O)c1ccc(Oc2c(-c3ccc(O)cc3O)n[nH]c2C)cc1,"inconclusive: 20 µM [quencher, side channel, partial curve]",–
CN(CCOc1ccc(Br)cc1)CC(O)COc1ccc(C#N)cc1 (stereo not drawn),–,inactive: 0.33%
CCN1CCN(c2cc(C)c3cc(NC(=O)c4ccc(C)c(C)c4)ccc3n2)CC1,"inconclusive: 2.51 µM [inhibitor, full curve, poor fit]",–
Cc1nn(-c2ccccn2)c2c1-c1nc(N)ncc1CC2,–,inactive: -12.1%
CCOC(=O)COc1ccc2c(C#N)c3ccccn3c2c1,"inconclusive: 11.2 µM [quencher, side channel, partial curve]",–
COc1cc2c(cc1NC(=O)/C=C/c1ccccc1)oc1ccccc12,"inconclusive: 11.2 µM [quencher, side channel, partial curve]",–
CC(=O)N1CCC(C(=O)OCc2ccccc2F)(c2ccccc2)CC1,"inconclusive: 28.2 µM [fluorescent, side channel, single point]",–
CC1CN(S(=O)(=O)c2ccc(C(=O)Nc3ccc(S(=O)(=O)Nc4nccs4)cc3)cc2)CC(C)O1 (stereo not drawn),"inconclusive: 12.6 µM [quencher, side channel, partial curve]",–
OC(c1ccccn1)C1CCN(Cc2nc(C(c3ccccc3)c3ccccc3)no2)CC1 (stereo not drawn),"inconclusive: 25.1 µM [fluorescent, side channel, partial curve]",–
N#Cc1c(-c2ccccc2)cc(C2CC2)nc1SCC(=O)c1cccs1,"inconclusive: 28.2 µM [inhibitor, partial curve]",–
CCN(C(=O)COC(=O)c1cc(-c2ccc3cc(OC)ccc3c2)nc2ccccc12)C1CCS(=O)(=O)C1 (stereo not drawn),"inconclusive: 1.12 µM [quencher, side channel, full curve]",–
COc1cc(NC2CCCCC2O)c2nc(-c3ccc(Cl)cc3)ccc2c1 (stereo not drawn),"inconclusive: 14.1 µM [quencher, side channel, partial curve]",–

SMILES,Potency,"FP activity change, negative = inhibition"
CN(C(=O)c1ccc(COc2ccccc2Cl)o1)c1ccccc1,"inconclusive: 12.6 µM [fluorescent, side channel, partial curve]",–
N#Cc1c(NC(=O)Cn2cnc3ccccc3c2=O)oc(-c2ccccc2)c1-c1ccccc1,"inconclusive: 22.4 µM [quencher, side channel, partial curve]",–
Cc1c(N=Cc2c(O)n(Cc3ccco3)c(=O)c3ccccc23)c(=O)n(-c2ccccc2)n1C,"inconclusive: 35.5 µM [quencher, side channel, single point]",–
O=C(CCc1ccccc1)NC(=S)Nc1ccccc1[N+](=O)[O-],"inconclusive: 25.1 µM [quencher, side channel, single point]",–
CCOC(=O)C1CCN(Cc2nc3ccccc3c(=O)n2-c2ccc(F)cc2)CC1,"inconclusive: 39.8 µM [inhibitor, single point]",–
O=C(Cc1ccc([N+](=O)[O-])cc1)N1CCN(c2ccc([N+](=O)[O-])cc2)CC1,–,inactive: 14.6%
N#Cc1ccc(CN2CCC3(CCNCC3)CC2)cc1,–,inactive: -27.8%
CCN(CC)C1=CC2=CC(=C(C#N)C#N)CCC2CC1 (stereo not drawn),"inconclusive: 39.8 µM [inhibitor, single point]",–
Cc1ccn(CC(=O)N/N=C/c2cc([N+](=O)[O-])ccc2O)n1,–,inactive: 4.96%
COc1ccc(-c2[nH]c(-c3cc(OC)c4c(c3)OCO4)nc2-c2ccccc2)cc1,"inconclusive: 5.01 µM [quencher, side channel, full curve]",–
COc1cccc(/C=C/C(=O)Nc2ccc(C(=O)Nc3cccc(S(N)(=O)=O)c3)cc2)c1OC,"inconclusive: 39.8 µM [inhibitor, single point]",–
Cc1ccc(COc2ccc(CNCCCN3CCCCCC3=O)cc2)cc1,"inconclusive: 7.08 µM [inhibitor, partial curve]",–
COc1cc2c(C(=O)NCc3ccc4c(c3)OCO4)cn(CC(C)C)c(=O)c2cc1OC,"inconclusive: 17.8 µM [fluorescent, side channel, single point]",–
O=C(N/N=C/c1cc2c(cc1Br)OCO2)c1cc2ccccc2o1,"inconclusive: 39.8 µM [fluorescent, side channel, single point]",–
COc1ccc(-c2noc(CCCC(=O)NC3CCCC3)n2)cc1OC,–,inactive: -7.12%
Cc1c(C(=O)NCC2COc3ccccc3O2)oc2ccc(S(=O)(=O)N3CC(C)CC(C)C3)cc12 (stereo not drawn),"inconclusive: 39.8 µM [inhibitor, single point]",–
COc1ccc(N2CCN(C(=O)c3ccc4c(c3)NC(=O)C(CSCc3ccc(C)cc3)N4)CC2)cc1 (stereo not drawn),"inconclusive: 20 µM [quencher, side channel, single point]",–
Oc1ccc(Nc2ccnc3cc(Cl)ccc23)cc1,–,inactive: 17.8%
COCCCNC(=O)COc1ccc(S(=O)(=O)Nc2ccccc2)cc1,–,inactive: 6.97%
CC(=O)c1c(OC(=O)c2ccc(C)cc2)c2ccccc2n1C,–,inactive: -21.4%

SMILES,Potency,"FP activity change, negative = inhibition"
Cc1c(NC(=O)CSc2cccc3cccnc23)c(=O)n(-c2ccccc2)n1C,"inconclusive: 39.8 µM [quencher, side channel, single point]",–
COc1ccc(C2=NS(=O)(=O)N(C)C(C(=O)NCc3ccco3)=C2)cc1OC,"inconclusive: 35.5 µM [quencher, side channel, partial curve]",–
C/C(=N\NS(=O)(=O)c1ccc(C)c([N+](=O)[O-])c1)c1ccc2c(c1)OCO2,"inconclusive: 20 µM [quencher, side channel, single point]",–
CC(C)(C)c1ccc(OCCCn2ccnc2)cc1,"inconclusive: 17.8 µM [fluorescent, side channel, partial curve]",–
Cc1ccc(Cl)cc1NC(=O)Nc1cccs1,"inconclusive: 20 µM [quencher, side channel, partial curve]",–
Cc1cc(C(=O)N/N=C/c2cc(Br)cc([N+](=O)[O-])c2O)c2ccccc2n1,"inconclusive: 20 µM [quencher, side channel, partial curve]",–
CCC(=O)Nc1nc2c(s1)COc1ccccc1-2,"inconclusive: 25.1 µM [quencher, side channel, single point]",–
COc1ccc(N2Cc3ccc(C(=O)N/N=C\c4ccc(O)cc4O)cc3C2)cc1,"inconclusive: 6.31 µM [quencher, side channel, partial curve]",–
Cc1cc2nnc(SC(C)C)n2c2ccccc12,"inconclusive: 39.8 µM [fluorescent, side channel, single point]",–
CCOC(=O)c1ccc2c(c1)n(CCO)c(C)[n+]2CC,–,inactive: -14.2% [at 11.7 µM]
CCN(CC)C(=O)CSc1nc(-c2cccs2)cc(-c2cccs2)c1C#N,–,inactive: -14.1%
COc1ccc2[nH]cc(CCNc3ncncc3-c3ccc(N(C)C)cc3)c2c1,–,inactive: 2.02%
COc1ccc2nc(C)cc(Nc3ccc(C)cc3)c2c1,"inconclusive: 22.4 µM [inhibitor, single point]",–
COc1ccc2[nH]c(CN3CCC(CO)(CCOc4ccccc4)CC3)c(C)c2c1,"inconclusive: 14.1 µM [fluorescent, side channel, partial curve]",–
COc1ccc(Cl)cc1C(=O)NNC(=S)NC(=O)c1cc(-c2ccc(Cl)cc2)nc2ccccc12,"inconclusive: 2.24 µM [quencher, side channel, full curve]",–
O=C(COc1ccc(Cl)cc1Cl)NCC(=O)N/N=C/c1c[nH]c2ccccc12,"inconclusive: 22.4 µM [quencher, side channel, partial curve]",–
CCCC(=O)OCCNc1cc(Sc2nccn2C)c2nonc2c1[N+](=O)[O-],"inconclusive: 31.6 µM [quencher, side channel, single point]",–
COc1ccc(C(=O)c2c(N)sc3c2CCN(C)C3)cc1,active: 14.1 µM,–
